Whole data set: some 33,000 sequences, median “E-score (-0.5 to 0.5)” near -0.054, cut for the highest 2% near 0.35. The list shows a part of the results.
These sequences were tested against T1, Stb5 (UniProt P38699) (assay: PBM E-score (8-mer binding enrichment) (E-score (-0.5 to 0.5)); higher = stronger / more preferred TF binding; most listed sequences are background and not binding sites). Conditions: protein concentration: 200 nM; construct: GST-full length.
T1 sequence: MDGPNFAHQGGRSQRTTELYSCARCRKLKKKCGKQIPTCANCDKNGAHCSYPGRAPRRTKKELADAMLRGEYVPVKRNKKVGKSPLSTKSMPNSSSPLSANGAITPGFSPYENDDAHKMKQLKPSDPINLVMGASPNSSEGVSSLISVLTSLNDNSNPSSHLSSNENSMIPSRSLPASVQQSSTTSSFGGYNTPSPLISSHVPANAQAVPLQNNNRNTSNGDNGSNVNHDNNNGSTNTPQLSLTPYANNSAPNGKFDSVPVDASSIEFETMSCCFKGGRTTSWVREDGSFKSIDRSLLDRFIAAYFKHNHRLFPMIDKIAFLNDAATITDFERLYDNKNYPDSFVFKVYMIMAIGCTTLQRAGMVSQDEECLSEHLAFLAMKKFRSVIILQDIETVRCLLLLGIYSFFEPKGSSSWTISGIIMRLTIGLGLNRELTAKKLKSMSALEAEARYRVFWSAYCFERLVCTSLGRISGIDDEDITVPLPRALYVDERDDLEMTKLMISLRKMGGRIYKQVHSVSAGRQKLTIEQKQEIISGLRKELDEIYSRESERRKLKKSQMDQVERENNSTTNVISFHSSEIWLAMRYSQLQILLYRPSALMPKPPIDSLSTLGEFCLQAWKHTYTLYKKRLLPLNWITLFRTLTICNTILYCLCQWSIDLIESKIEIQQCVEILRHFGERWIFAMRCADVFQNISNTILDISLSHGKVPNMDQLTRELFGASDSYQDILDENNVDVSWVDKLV
How it was run: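 Full-length yeast transcription factors or their DNA-binding domains, GST-tagged and expressed with PURExpress, were applied at about 100-200 nM to universal all-10-mer Agilent arrays. These arrays had been made double-stranded by primer extension on fresh or once-stripped slides. Detection used fluorescent anti-GST, normalisation used masliner, and E-scores for ungapped eight-base words pooled with reverse complements came from the Universal PBM Analysis Suite.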
With CCGGGAAA the “PBM E-score” value was 0.194.
AAAGCATG was tested, and the “PBM E-score” value was -0.169.
ATTATGCA was tested, and the “PBM E-score” value was -0.0339.
In the case of GGGAGGGA, the “PBM E-score” value is reported as -0.0136.
In the case of GATTTGGA, the “PBM E-score” value is reported as -0.00562.
For CATAAATC, the “PBM E-score” value was 0.0872.
For GAGTAACA, the “PBM E-score” value was 0.0832.
For CGGAGAGA, the “PBM E-score” value was 0.241.
With CAGGATGG the “PBM E-score” value was -0.143.
For TAGCGATA, the “PBM E-score” value was 0.0393.
AGGCGAAA was tested, and the “PBM E-score” value was -0.239.
For AACCATGA, the “PBM E-score” value was 0.00068.
With CAGGTTAC the “PBM E-score” value was 0.0846.
ATCCAACG was tested, and the “PBM E-score” value was -0.168.
AATGCATT was tested, and the “PBM E-score” value was -0.0561.
With AAGGAAAC the “PBM E-score” value was -0.0801.
In the case of ACCCAGTG, the “PBM E-score” value is reported as -0.137.
GACGGGAC was tested, and the “PBM E-score” value was 0.263.
GAATCCAA was tested, and the “PBM E-score” value was -0.0196.
ACACACTA was tested, and the “PBM E-score” value was -0.195.
With AAGCGAAC the “PBM E-score” value was -0.232.
In the case of ATACGACC, the “PBM E-score” value is reported as 0.0979.
With CGCGCTCA the “PBM E-score” value was -0.0421.
In the case of CTATTTCA, the “PBM E-score” value is reported as 0.069.
CTGGGCTA was tested, and the “PBM E-score” value was -0.0628.
AAATCATA was tested, and the “PBM E-score” value was -0.138.
With CGCCAGGA the “PBM E-score” value was -0.17.
With ACGAGCAG the “PBM E-score” value was -0.142.
For AGCGACGG, the “PBM E-score” value was 0.245.
In the case of ACATTGGC, the “PBM E-score” value is reported as -0.26.
In the case of ACCGTCGT, the “PBM E-score” value is reported as 0.233.
CATCTTCC was tested, and the “PBM E-score” value was 0.0811.
With CACCGGAC the “PBM E-score” value was 0.413.
With GGGCGAAC the “PBM E-score” value was -0.158.
CGGGCGAA was tested, and the “PBM E-score” value was 0.143.
With GTCGGTTA the “PBM E-score” value was 0.182.
For ATGATGTC, the “PBM E-score” value was 0.00134.
With ACTGAAAT the “PBM E-score” value was -0.247.
For CCCTCAGG, the “PBM E-score” value was -0.0337.
In the case of AGTTACTG, the “PBM E-score” value is reported as 0.0537.
In the case of AGAAATGG, the “PBM E-score” value is reported as -0.143.
In the case of CCTGGCTA, the “PBM E-score” value is reported as -0.283.
In the case of CAGGAGTC, the “PBM E-score” value is reported as -0.149.
With CACAAGGC the “PBM E-score” value was -0.0126.
With TGAGCTCA the “PBM E-score” value was -0.125.
AATGTCCG was tested, and the “PBM E-score” value was 0.438.
AGACTGGA was tested, and the “PBM E-score” value was -0.0927.
For CATCAACA, the “PBM E-score” value was 0.0855.
In the case of CACATGTG, the “PBM E-score” value is reported as -0.0446.
CACTAACG was tested, and the “PBM E-score” value was 0.0364.
With CCTTCCTC the “PBM E-score” value was -0.17.
For GACCTGCC, the “PBM E-score” value was -0.0858.
In the case of CGGTAAAA, the “PBM E-score” value is reported as 0.32.
GAATATTC was tested, and the “PBM E-score” value was 0.0673.
In the case of GCGTGACC, the “PBM E-score” value is reported as -0.131.
In the case of AAGCCCAA, the “PBM E-score” value is reported as -0.0712.
For CACAGAGA, the “PBM E-score” value was -0.24.
In the case of CAACCGGA, the “PBM E-score” value is reported as 0.215.
For CAATCTAG, the “PBM E-score” value was 0.0021.
For AACGTGGC, the “PBM E-score” value was -0.29.
ACTCGGGA was tested, and the “PBM E-score” value was 0.116.
CGATCCGC was tested, and the “PBM E-score” value was 0.266.
For AGTATTAC, the “PBM E-score” value was 0.0335.
ATGTAGAA was tested, and the “PBM E-score” value was -0.0382.
With CAATCAAG the “PBM E-score” value was -0.0529.
In the case of CACAGTTA, the “PBM E-score” value is reported as -0.17.
AAATCGCC was tested, and the “PBM E-score” value was 0.169.
For CGAAAAGA, the “PBM E-score” value was 0.0925.
In the case of CGAATCGA, the “PBM E-score” value is reported as -0.0368.
For ACTAGGCG, the “PBM E-score” value was 0.112.
TGCAAACA was tested, and the “PBM E-score” value was -0.235.
With GTTGTAGA the “PBM E-score” value was -0.221.
In the case of CGTTGCTC, the “PBM E-score” value is reported as 0.00415.
In the case of ATCCCGCG, the “PBM E-score” value is reported as 0.309.
For CGTGTCTC, the “PBM E-score” value was -0.06.
For AAGCAGAT, the “PBM E-score” value was -0.139.
With ACGATACC the “PBM E-score” value was 0.0185.
For CGTACACA, the “PBM E-score” value was -0.209.
With TGCGATAA the “PBM E-score” value was -0.15.
With ATGTCACC the “PBM E-score” value was 0.321.
With AAAAATTA the “PBM E-score” value was 0.0434.
In the case of CTGTCACA, the “PBM E-score” value is reported as -0.128.
GAAAGCCA was tested, and the “PBM E-score” value was -0.226.
For ATGCGTGC, the “PBM E-score” value was -0.194.
For GAATGTCC, the “PBM E-score” value was 0.211.
For ATGAAGAC, the “PBM E-score” value was -0.048.
In the case of TAGCTGGA, the “PBM E-score” value is reported as -0.222.
In the case of AACTTTAA, the “PBM E-score” value is reported as 0.00296.
AAGGATCA was tested, and the “PBM E-score” value was -0.18.
In the case of GAGCGTGA, the “PBM E-score” value is reported as 0.0626.
In the case of CTCGTGGA, the “PBM E-score” value is reported as -0.199.
In the case of ATAAGGCA, the “PBM E-score” value is reported as -0.131.
In the case of CGTACGCC, the “PBM E-score” value is reported as 0.138.
GGGAGCTA was tested, and the “PBM E-score” value was -0.0945.

Source: the supplement of paper PMC3334620
